# Assay results from the supplement of paper PMC8728848.
# This is one part of the list.
# B1: LBL-152 (Laetiporus bicolor), B0D650 (protein)
# chain: MSNEYNPPLGIAFRLCGLASDRVLFSRVSPSPEVFHHPKSEVYPDQWFVAIPGSGQNAGCYAIKSKNTGKVLFSRMSPDPRVGHIDGDGKYPDNWFKFEAGSGKYAGYFRLRAVASDTVLVSRTSTGTDTQVINYPATSAKYDDQYFTILFDHHHHHH
# Assays:
# Test in all cases: glycan array binding signal (z-score within array); higher = stronger binding
# Details in all cases: glycan notation: IUPAC condensed, linker removed
# Fuc(a1-2)Gal = target: Fuc(a1-2)Gal
# Procedure, shortened: (§1)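 From the Consortium for Functional Glycomics database, 3228 arrays were curated, keeping only those whose protein sequence was available. Binding is given as a within-array Z-score averaged across arrays sharing a protein sequence and across linkers. Negative Z-scores can be read as non-binding.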
# Fuc(a1-2)Gal(b1-3)GalNAc = target: Fuc(a1-2)Gal(b1-3)GalNAc
# Procedure, shortened: as §1
# [1] = target: Fuc(a1-2)Gal(b1-3)GalNAc(a1-3)[Fuc(a1-2)]Gal(b1-4)Glc
# Procedure, shortened: as §1
# [2] = target: Fuc(a1-2)Gal(b1-3)GalNAc(a1-3)[Fuc(a1-2)]Gal(b1-4)GlcNAc
# Procedure, shortened: as §1
# [3] = target: Fuc(a1-2)Gal(b1-3)GalNAc(b1-3)Gal
# Procedure, shortened: as §1
# [4] = target: Fuc(a1-2)Gal(b1-3)GalNAc(b1-3)Gal(a1-4)Gal(b1-4)Glc
# Procedure, shortened: as §1
# [5] = target: Fuc(a1-2)Gal(b1-3)GalNAc(b1-4)[Neu5Ac(a2-3)]Gal(b1-4)Glc
# Procedure, shortened: as §1
# Fuc(a1-2)Gal(b1-3)GlcNAc = target: Fuc(a1-2)Gal(b1-3)GlcNAc
# Procedure, shortened: as §1
# [6] = target: Fuc(a1-2)Gal(b1-3)GlcNAc(b1-2)Man(a1-3)[Fuc(a1-2)Gal(b1-3)GlcNAc(b1-2)Man(a1-6)]Man(b1-4)GlcNAc(b1-4)GlcNAc
# Procedure, shortened: as §1
# [7] = target: Fuc(a1-2)Gal(b1-3)GlcNAc(b1-2)Man(a1-3)[Fuc(a1-2)Gal(b1-3)GlcNAc(b1-2)Man(a1-6)]Man(b1-4)GlcNAc(b1-4)[Fuc(a1-6)]GlcNAc
# Procedure, shortened: as §1
# [8] = target: Fuc(a1-2)Gal(b1-3)GlcNAc(b1-3)Gal(b1-4)Glc
# Procedure, shortened: as §1
# [9] = target: Fuc(a1-2)Gal(b1-3)GlcNAc(b1-3)GalNAc
# Procedure, shortened: as §1
# [10] = target: Fuc(a1-2)Gal(b1-3)GlcNAc(b1-3)[Fuc(a1-2)Gal(b1-3)GlcNAc(b1-6)]GalNAc
# Procedure, shortened: as §1
# [11] = target: Fuc(a1-2)Gal(b1-3)GlcNAc(b1-3)[Gal(b1-4)GlcNAc(b1-6)]Gal(b1-4)Glc
# Procedure, shortened: as §1
# [12] = target: Fuc(a1-2)Gal(b1-3)GlcNAc(b1-3)[Neu5Ac(a2-6)Gal(b1-4)GlcNAc(b1-6)]Gal(b1-4)Glc
# Procedure, shortened: as §1
# [13] = target: Fuc(a1-2)Gal(b1-3)GlcNAc6S
# Procedure, shortened: as §1
# [14] = target: Fuc(a1-2)Gal(b1-3)[Fuc(a1-4)]GlcNAc
# Procedure, shortened: as §1
# [15] = target: Fuc(a1-2)Gal(b1-3)[Fuc(a1-4)]GlcNAc(b1-2)Man(a1-3)[Fuc(a1-2)Gal(b1-3)[Fuc(a1-4)]GlcNAc(b1-2)Man(a1-3)]Man(b1-4)GlcNAc(b1-4)GlcNAc
# Procedure, shortened: as §1
# [16] = target: Fuc(a1-2)Gal(b1-3)[Fuc(a1-4)]GlcNAc(b1-2)Man(a1-3)[Fuc(a1-2)Gal(b1-3)[Fuc(a1-4)]GlcNAc(b1-2)Man(a1-6)]Man(b1-4)GlcNAc(b1-4)[Fuc(a1-6)]GlcNAc(b1-4)[Fuc(a1-6)]GlcNAc
# Procedure, shortened: as §1
# [17] = target: Fuc(a1-2)Gal(b1-3)[Fuc(a1-4)]GlcNAc(b1-3)[Fuc(a1-3)[Gal(b1-4)]GlcNAc(b1-6)]Gal(b1-4)Glc
# Procedure, shortened: as §1
# [18] = target: Fuc(a1-2)Gal(b1-3)[Fuc(a1-4)]GlcNAc(b1-3)[Gal(b1-4)GlcNAc(b1-6)]Gal(b1-4)Glc
# Procedure, shortened: as §1
# [19] = target: Fuc(a1-2)Gal(b1-4)Fuc(a1-3)]GlcNAc(b1-2)Man(a1-3)[Fuc(a1-2)Gal(b1-4)[Fuc(a1-3)]GlcNAc(b1-2)Man(a1-6)]Man(b1-4)GlcNAc(b1-4)GlcNAc
# Procedure, shortened: as §1
# Fuc(a1-2)Gal(b1-4)Glc = target: Fuc(a1-2)Gal(b1-4)Glc
# Procedure, shortened: as §1
# Fuc(a1-2)Gal(b1-4)Glc6S = target: Fuc(a1-2)Gal(b1-4)Glc6S
# Procedure, shortened: as §1
# Fuc(a1-2)Gal(b1-4)GlcNAc = target: Fuc(a1-2)Gal(b1-4)GlcNAc
# Procedure, shortened: as §1
# [20] = target: Fuc(a1-2)Gal(b1-4)GlcNAc(b1-2)Man
# Procedure, shortened: as §1
# [21] = target: Fuc(a1-2)Gal(b1-4)GlcNAc(b1-2)Man(a1-3)[Fuc(a1-2)Gal(b1-4)GlcNAc(b1-2)Man(a1-6)]Man(b1-4)GlcNAc(b1-4)GlcNAc
# Procedure, shortened: as §1
# [22] = target: Fuc(a1-2)Gal(b1-4)GlcNAc(b1-2)Man(a1-3)[Fuc(a1-2)Gal(b1-4)GlcNAc(b1-2)Man(a1-6)]Man(b1-4)GlcNAc(b1-4)[Fuc(a1-6)]GlcNAc
# Procedure, shortened: as §1
# [23] = target: Fuc(a1-2)Gal(b1-4)GlcNAc(b1-2)[Fuc(a1-2)Gal(b1-4)GlcNAc(b1-4)]Man(a1-3)[Fuc(a1-2)Gal(b1-4)GlcNAc(b1-2)Man(a1-6)]Man(b1-4)GlcNAc(b1-4)GlcNAc
# Procedure, shortened: as §1
# [24] = target: Fuc(a1-2)Gal(b1-4)GlcNAc(b1-3)Gal(b1-4)GlcNAc
# Procedure, shortened: as §1
# [25] = target: Fuc(a1-2)Gal(b1-4)GlcNAc(b1-3)Gal(b1-4)GlcNAc(b1-2)Man(a1-3)[Fuc(a1-2)Gal(b1-4)GlcNAc(b1-3)Gal(b1-4)GlcNAc(b1-2)Man(a1-6)]Man(b1-4)GlcNAc(b1-4)GlcNAc
# Procedure, shortened: as §1
# [26] = target: Fuc(a1-2)Gal(b1-4)GlcNAc(b1-3)Gal(b1-4)GlcNAc(b1-3)Gal(b1-4)GlcNAc
# Procedure, shortened: as §1
# [27] = target: Fuc(a1-2)Gal(b1-4)GlcNAc(b1-3)GalNAc
# Procedure, shortened: as §1
# [28] = target: Fuc(a1-2)Gal(b1-4)GlcNAc(b1-3)[Fuc(a1-2)Gal(b1-4)GlcNAc(b1-6)]GalNAc
# Procedure, shortened: as §1
# [29] = target: Fuc(a1-2)Gal(b1-4)GlcNAc(b1-3)[Fuc(a1-3)[Gal(b1-4)]GlcNAc(b1-6)]Gal(b1-4)Glc
# Procedure, shortened: as §1
# [30] = target: Fuc(a1-2)Gal(b1-4)GlcNAc(b1-6)GalNAc
# Procedure, shortened: as §1
# [31] = target: Fuc(a1-2)Gal(b1-4)GlcNAc6S
# Procedure, shortened: as §1
# [32] = target: Fuc(a1-2)Gal(b1-4)[Fuc(a1-3)]GlcNAc
# Procedure, shortened: as §1
# [33] = target: Fuc(a1-2)Gal(b1-4)[Fuc(a1-3)]GlcNAc(b1-2)Man(a1-3)[Fuc(a1-2)Gal(b1-4)[Fuc(a1-3)]GlcNAc(b1-2)Man(a1-6)]Man(b1-4)GlcNAc(b1-4)[Fuc(a1-6)]GlcNAc
# Procedure, shortened: as §1
# [34] = target: Fuc(a1-2)Gal(b1-4)[Fuc(a1-3)]GlcNAc(b1-2)[Fuc(a1-2)Gal(b1-4)[Fuc(a1-3)]GlcNAc(b1-4)]Man(a1-3)[Fuc(a1-2)Gal(b1-4)[Fuc(a1-3)]GlcNAc(b1-2)Man(a1-6)]Man(b1-4)GlcNAc(b1-4)GlcNAc
# Procedure, shortened: as §1
# [35] = target: Fuc(a1-2)Gal(b1-4)[Fuc(a1-3)]GlcNAc(b1-3)Gal(b1-4)[Fuc(a1-3)]GlcNAc
# Procedure, shortened: as §1
# [36] = target: Fuc(a1-2)Gal(b1-4)[Fuc(a1-3)]GlcNAc(b1-3)Gal(b1-4)[Fuc(a1-3)]GlcNAc(b1-3)Gal(b1-4)[Fuc(a1-3)]GlcNAc
# Procedure, shortened: as §1
# [37] = target: Fuc(a1-2)Gal(b1-4)[Fuc(a1-3)]GlcNAc(b1-3)GalNAc
# Procedure, shortened: as §1
# [38] = target: Fuc(a1-2)Gal(b1-4)[Fuc(a1-3)]GlcNAc(b1-3)[Neu5Ac(a2-6)Gal(b1-4)GlcNAc(b1-6)]Gal(b1-4)Glc
# Procedure, shortened: as §1
# [39] = target: Fuc(a1-2)Gal3S(b1-4)GlcNAc
# Procedure, shortened: as §1
binder,measurement,setting,value
B1,glycan array binding signal (z-score),Fuc(a1-2)Gal,-0.151
same,glycan array binding signal (z-score),Fuc(a1-2)Gal(b1-3)GalNAc,-0.156
same,glycan array binding signal (z-score),[1],-0.154
same,glycan array binding signal (z-score),[2],-0.157
same,glycan array binding signal (z-score),[3],-0.162
same,glycan array binding signal (z-score),[4],-0.154
same,glycan array binding signal (z-score),[5],-0.15
same,glycan array binding signal (z-score),Fuc(a1-2)Gal(b1-3)GlcNAc,-0.153
same,glycan array binding signal (z-score),[6],-0.159
same,glycan array binding signal (z-score),[7],-0.143
same,glycan array binding signal (z-score),[8],-0.15
same,glycan array binding signal (z-score),[9],-0.159
same,glycan array binding signal (z-score),[10],-0.15
same,glycan array binding signal (z-score),[11],-0.154
same,glycan array binding signal (z-score),[12],-0.144
same,glycan array binding signal (z-score),[13],-0.14
same,glycan array binding signal (z-score),[14],-0.152
same,glycan array binding signal (z-score),[15],-0.144
same,glycan array binding signal (z-score),[16],-0.154
same,glycan array binding signal (z-score),[17],-0.151
same,glycan array binding signal (z-score),[18],-0.15
same,glycan array binding signal (z-score),[19],-0.143
same,glycan array binding signal (z-score),Fuc(a1-2)Gal(b1-4)Glc,-0.156
same,glycan array binding signal (z-score),Fuc(a1-2)Gal(b1-4)Glc6S,-0.15
same,glycan array binding signal (z-score),Fuc(a1-2)Gal(b1-4)GlcNAc,-0.156
same,glycan array binding signal (z-score),[20],-0.149
same,glycan array binding signal (z-score),[21],-0.12
same,glycan array binding signal (z-score),[22],-0.146
same,glycan array binding signal (z-score),[23],-0.136
same,glycan array binding signal (z-score),[24],-0.14
same,glycan array binding signal (z-score),[25],-0.109
same,glycan array binding signal (z-score),[26],0.007
same,glycan array binding signal (z-score),[27],-0.145
same,glycan array binding signal (z-score),[28],-0.159
same,glycan array binding signal (z-score),[29],-0.146
same,glycan array binding signal (z-score),[30],-0.146
same,glycan array binding signal (z-score),[31],-0.156
same,glycan array binding signal (z-score),[32],-0.157
same,glycan array binding signal (z-score),[33],-0.147
same,glycan array binding signal (z-score),[34],-0.149
same,glycan array binding signal (z-score),[35],-0.16
same,glycan array binding signal (z-score),[36],-0.155
same,glycan array binding signal (z-score),[37],-0.14
same,glycan array binding signal (z-score),[38],-0.152
same,glycan array binding signal (z-score),[39],-0.159
